Data taken from article PMC5467231.
No constants are given. Whether binding was seen depends on the method and setting. For some assays here: Binding seen in cells or lysates may run through a third protein. Some results given as binding are weak or reduced against the parent protein; the word gives no strength. Blank lines part the entries; values can stand above or below the binder they belong to.

The chains behind the UniProt entries cited, without tags or fusion partners. Where a name states a change or a piece, a line headed by the entry shows the natural chain unless it says otherwise. Residues count along the entry.
UniProt P11362: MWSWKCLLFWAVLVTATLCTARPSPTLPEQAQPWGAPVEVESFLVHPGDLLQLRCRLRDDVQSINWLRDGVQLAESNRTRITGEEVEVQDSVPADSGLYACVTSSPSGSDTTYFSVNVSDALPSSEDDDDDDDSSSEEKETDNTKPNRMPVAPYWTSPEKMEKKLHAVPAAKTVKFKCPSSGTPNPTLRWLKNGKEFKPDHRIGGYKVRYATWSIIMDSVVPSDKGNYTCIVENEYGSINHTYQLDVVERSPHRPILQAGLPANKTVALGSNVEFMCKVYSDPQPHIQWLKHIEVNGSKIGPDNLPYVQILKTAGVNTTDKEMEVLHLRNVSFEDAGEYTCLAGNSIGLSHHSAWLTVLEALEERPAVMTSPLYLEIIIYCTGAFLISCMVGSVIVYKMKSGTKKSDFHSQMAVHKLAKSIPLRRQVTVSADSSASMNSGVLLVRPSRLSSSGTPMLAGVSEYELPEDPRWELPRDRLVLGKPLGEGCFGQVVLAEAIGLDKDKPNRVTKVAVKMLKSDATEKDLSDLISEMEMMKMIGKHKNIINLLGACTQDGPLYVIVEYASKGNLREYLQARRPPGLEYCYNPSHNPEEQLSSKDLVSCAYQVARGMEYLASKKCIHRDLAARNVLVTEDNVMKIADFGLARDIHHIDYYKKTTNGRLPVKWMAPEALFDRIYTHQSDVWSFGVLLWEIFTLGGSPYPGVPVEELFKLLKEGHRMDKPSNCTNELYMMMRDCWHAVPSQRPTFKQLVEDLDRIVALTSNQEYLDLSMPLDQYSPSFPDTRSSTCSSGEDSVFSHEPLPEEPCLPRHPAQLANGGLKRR
FGFR1, endogenous in HEK293 cells (human (endogenous in HEK293)): residues 22-822 of P11362
recombinant human FGFR1/Fc chimera (Sino Biological 10616-H03H): residues 22-376 of P11362
UniProt P21802, residues 22-377: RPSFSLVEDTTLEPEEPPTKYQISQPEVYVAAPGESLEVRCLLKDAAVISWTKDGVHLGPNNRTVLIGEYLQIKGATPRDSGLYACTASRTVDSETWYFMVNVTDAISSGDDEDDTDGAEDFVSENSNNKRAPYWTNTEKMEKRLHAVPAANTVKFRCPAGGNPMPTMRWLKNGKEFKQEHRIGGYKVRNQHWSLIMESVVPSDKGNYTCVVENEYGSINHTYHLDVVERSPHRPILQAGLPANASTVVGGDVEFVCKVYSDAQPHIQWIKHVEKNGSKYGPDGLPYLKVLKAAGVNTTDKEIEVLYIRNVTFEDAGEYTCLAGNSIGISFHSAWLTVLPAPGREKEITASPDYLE

Experiments:
[1] = molecular target: T1, melanoma cell adhesion molecule (MCAM), endogenous in HEK293 cells (human (endogenous in HEK293)) (UniProt P43121); assay: co-IP; HEK293 lysate (1% NP-40, 100 mM NaCl, pH 7.5); precipitated with anti-MCAM antibody AA1 and Protein G PLUS-Agarose at 4 °C, washed with 1 M NaCl, 1% NP-40; immunoblot (precipitating antibody of the FGFR1/FGF4 co-IP not told)
T1 sequence: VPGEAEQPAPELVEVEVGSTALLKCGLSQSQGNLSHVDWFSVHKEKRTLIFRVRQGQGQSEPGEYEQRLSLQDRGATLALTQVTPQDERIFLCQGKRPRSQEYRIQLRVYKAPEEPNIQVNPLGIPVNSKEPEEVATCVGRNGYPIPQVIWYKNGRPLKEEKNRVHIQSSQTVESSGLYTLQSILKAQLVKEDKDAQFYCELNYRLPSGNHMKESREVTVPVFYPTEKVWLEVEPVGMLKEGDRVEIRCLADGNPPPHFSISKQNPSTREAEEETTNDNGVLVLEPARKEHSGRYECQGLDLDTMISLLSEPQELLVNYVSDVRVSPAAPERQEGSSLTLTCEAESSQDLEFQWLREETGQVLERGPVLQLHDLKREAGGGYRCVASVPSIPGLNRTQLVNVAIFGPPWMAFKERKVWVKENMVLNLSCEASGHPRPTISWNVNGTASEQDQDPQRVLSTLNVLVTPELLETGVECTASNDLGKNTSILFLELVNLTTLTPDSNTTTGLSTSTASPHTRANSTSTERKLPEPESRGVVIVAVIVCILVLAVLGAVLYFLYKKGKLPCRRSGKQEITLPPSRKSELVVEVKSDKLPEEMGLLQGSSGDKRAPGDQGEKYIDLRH

[2] = molecular target: recombinant human FGFR1/Fc chimera (Sino Biological 10616-H03H) (human) (UniProt P11362); assay: SPR; Biacore T100, CM5 chip, room temperature, 1x PBS with 0.05% Tween 20; MCAM/Fc, FGFR1/Fc, FGFR2/Fc or IgG1 Fc immobilised by amine coupling, soluble FGF2, FGF4 or FGF8 flowed over; 1:1 binding model; both purified
[3] = molecular target: recombinant human FGFR2/Fc chimera (Sino Biological 10824-H03H) (human) (UniProt P21802); assay: as above
[4] = molecular target: T1, melanoma cell adhesion molecule (MCAM), endogenous in HEK293 cells (human (endogenous in HEK293)); assay: co-IP; as the co-IP from HEK293 lysate, but whole cell lysate pre-treated with heparinase I and heparinase III (0.06 IU ml^-1) to degrade endogenous HSPGs
[5] = molecular target: FGFR1, endogenous in HEK293 cells (human (endogenous in HEK293)) (UniProt P11362); assay: co-IP; HEK293 lysate (1% NP-40, 100 mM NaCl, pH 7.5); precipitated with anti-MCAM antibody AA1 and Protein G PLUS-Agarose at 4 °C, washed with 1 M NaCl, 1% NP-40; immunoblot (precipitating antibody of the FGFR1/FGF4 co-IP not told)
[6] = molecular target: FGFR1, endogenous in HEK293 cells (human (endogenous in HEK293)) (UniProt P11362); assay: condition: only lysate pre-treated with heparinase I and heparinase III (0.06 IU ml^-1); co-IP; as the co-IP from HEK293 lysate, but whole cell lysate pre-treated with heparinase I and heparinase III (0.06 IU ml^-1) to degrade endogenous HSPGs

binding [1]: binds
B1: PLC-γ2, endogenous in HEK293 cells (enzyme, UniProt P16885 1-1265)
chain: MSTTVNVDSLAEYEKSQIKRALELGTVMTVFSFRKSTPERRTVQVIMETRQVAWSKTADKIEGFLDIMEIKEIRPGKNSKDFERAKAVRQKEDCCFTILYGTQFVLSTLSLAADSKEDAVNWLSGLKILHQEAMNASTPTIIESWLRKQIYSVDQTRRNSISLRELKTILPLINFKVSSAKFLKDKFVEIGAHKDELSFEQFHLFYKKLMFEQQKSILDEFKKDSSVFILGNTDRPDASAVYLHDFQRFLIHEQQEHWAQDLNKVRERMTKFIDDTMRETAEPFLFVDEFLTYLFSRENSIWDEKYDAVDMQDMNNPLSHYWISSSHNTYLTGDQLRSESSPEAYIRCLRMGCRCIELDCWDGPDGKPVIYHGWTRTTKIKFDDVVQAIKDHAFVTSSFPVILSIEEHCSVEQQRHMAKAFKEVFGDLLLTKPTEASADQLPSPSQLREKIIIKHKKLGPRGDVDVNMEDKKDEHKQQGELYMWDSIDQKWTRHYCAIADAKLSFSDDIEQTMEEEVPQDIPPTELHFGEKWFHKKVEKRTSAEKLLQEYCMETGGKDGTFLVRESETFPNDYTLSFWRSGRVQHCRIRSTMEGGTLKYYLTDNLTFSSIYALIQHYRETHLRCAEFELRLTDPVPNPNPHESKPWYYDSLSRGEAEDMLMRIPRDGAFLIRKREGSDSYAITFRARGKVKHCRINRDGRHFVLGTSAYFESLVELVSYYEKHSLYRKMRLRYPVTPELLERYNMERDINSLYDVSRMYVDPSEINPSMPQRTVKALYDYKAKRSDELSFCRGALIHNVSKEPGGWWKGDYGTRIQQYFPSNYVEDISTADFEELEKQIIEDNPLGSLCRGILDLNTYNVVKAPQGKNQKSFVFILEPKQQGDPPVEFATDRVEELFEWFQSIREITWKIDTKENNMKYWEKNQSIAIELSDLVVYCKPTSKTKDNLENPDFREIRSFVETKADSIIRQKPVDLLKYNQKGLTRVYPKGQRVDSSNYDPFRLWLCGSQMVALNFQTADKYMQMNHALFSLNGRTGYVLQPESMRTEKYDPMPPESQRKILMTLTVKVLGARHLPKLGRSIACPFVEVEICGAEYDNNKFKTTVVNDNGLSPIWAPTQEKVTFEIYDPNLAFLRFVVYEEDMFSDPNFLAHATYPIKAVKSGFRSVPLKNGYSEDIELASLLVFCEMRPVLESEEELYSSCRQLRRRQEELNNQLFLYDTHQNLRNANRDALVKEFSVNENQLQLYQEKCNKRLREKRVSNSKFYS

binding [4]: binds
binding [5]: binds
binding [1]: binds
binding [6]: no binding
B4: FGF4 in HEK293 cell lysate (ligand, UniProt P08620 31-206)
chain: APTAPNGTLEAELERRWESLVALSLARLPVAAQPKEAAVQSGAGDYLLGIKRLRRLYCNVGIGFHLQALPDGRIGGAHADTRDSLLELSPVERGVVSIFGVASRFFVAMSSKGKLYGSPFFTDECTFKEILLPNNYNAYESYKYPGMFIALSKNGKTKKGNRVSPTMKVTHFLPRL

More lines, now with the values behind:

B2: PLC-γ1, endogenous in HEK293 cells (enzyme, UniProt P19174 1-1290)
chain: MAGAASPCANGCGPGAPSDAEVLHLCRSLEVGTVMTLFYSKKSQRPERKTFQVKLETRQITWSRGADKIEGAIDIREIKEIRPGKTSRDFDRYQEDPAFRPDQSHCFVILYGMEFRLKTLSLQATSEDEVNMWIKGLTWLMEDTLQAPTPLQIERWLRKQFYSVDRNREDRISAKDLKNMLSQVNYRVPNMRFLRERLTDLEQRSGDITYGQFAQLYRSLMYSAQKTMDLPFLEASTLRAGERPELCRVSLPEFQQFLLDYQGELWAVDRLQVQEFMLSFLRDPLREIEEPYFFLDEFVTFLFSKENSVWNSQLDAVCPDTMNNPLSHYWISSSHNTYLTGDQFSSESSLEAYARCLRMGCRCIELDCWDGPDGMPVIYHGHTLTTKIKFSDVLHTIKEHAFVASEYPVILSIEDHCSIAQQRNMAQYFKKVLGDTLLTKPVEISADGLPSPNQLKRKILIKHKKLAEGSAYEEVPTSMMYSENDISNSIKNGILYLEDPVNHEWYPHYFVLTSSKIYYSEETSSDQGNEDEEEPKEVSSSTELHSNEKWFHGKLGAGRDGRHIAERLLTEYCIETGAPDGSFLVRESETFVGDYTLSFWRNGKVQHCRIHSRQDAGTPKFFLTDNLVFDSLYDLITHYQQVPLRCNEFEMRLSEPVPQTNAHESKEWYHASLTRAQAEHMLMRVPRDGAFLVRKRNEPNSYAISFRAEGKIKHCRVQQEGQTVMLGNSEFDSLVDLISYYEKHPLYRKMKLRYPINEEALEKIGTAEPDYGALYEGRNPGFYVEANPMPTFKCAVKALFDYKAQREDELTFIKSAIIQNVEKQEGGWWRGDYGGKKQLWFPSNYVEEMVNPVALEPEREHLDENSPLGDLLRGVLDVPACQIAIRPEGKNNRLFVFSISMASVAHWSLDVAADSQEELQDWVKKIREVAQTADARLTEGKIMERRKKIALELSELVVYCRPVPFDEEKIGTERACYRDMSSFPETKAEKYVNKAKGKKFLQYNRLQLSRIYPKGQRLDSSNYDPLPMWICGSQLVALNFQTPDKPMQMNQALFMTGRHCGYVLQPSTMRDEAFDPFDKSSLRGLEPCAISIEVLGARHLPKNGRGIVCPFVEIEVAGAEYDSTKQKTEFVVDNGLNPVWPAKPFHFQISNPEFAFLRFVVYEEDMFSDQNFLAQATFPVKGLKTGYRAVPLKNNYSEDLELASLLIKIDIFPAKENGDLSPFSGTSLRERGSDASGQLFHGRAREGSFESRYQQPFEDFRISQEHLADHFDSRERRAPRRTRVNGDNRL
binding [1]: binds

B3: recombinant FGF4 (Peprotech AF-100-31) (ligand, UniProt P08620 31-206)
chain: APTAPNGTLEAELERRWESLVALSLARLPVAAQPKEAAVQSGAGDYLLGIKRLRRLYCNVGIGFHLQALPDGRIGGAHADTRDSLLELSPVERGVVSIFGVASRFFVAMSSKGKLYGSPFFTDECTFKEILLPNNYNAYESYKYPGMFIALSKNGKTKKGNRVSPTMKVTHFLPRL
binding [2]: binds
binding [3]: binds
